Measured values as given in PubChem BioAssay (Tox21).
Inconclusive results, whose numbers are uncertain, are shown with a selection of clear calls. For some of these results: A potency beside an inconclusive call is a rough fit, not a confirmed value. The source made the active and inactive calls. Unless noted, calls follow the shape of the full dose curve.

Assays:
[1] = biological target: Peroxisome proliferator-activated receptor gamma (Homo sapiens) (UniProt P37231); assay: qHTS assay to identify small molecule antagonists of the peroxisome proliferator-activated receptor gamma (PPARg) signaling pathway (AID 743191); details: HEK293H PPARg-UAS-bla, beta-lactamase ratio, antagonist, 17 h; ratio activity, negative = inhibition: at 62.6 µM (top of the series) unless noted; also: nearly all actives have a fitted effect of over 30% in size; also: potency is read from the fitted curve at half-maximal effect; as to ratio activity, negative = inhibition: % is scaled to controls: 0 for no effect and ±100 for the full control effect
Chain of UniProt P37231 (P37231 whole entry, looked up): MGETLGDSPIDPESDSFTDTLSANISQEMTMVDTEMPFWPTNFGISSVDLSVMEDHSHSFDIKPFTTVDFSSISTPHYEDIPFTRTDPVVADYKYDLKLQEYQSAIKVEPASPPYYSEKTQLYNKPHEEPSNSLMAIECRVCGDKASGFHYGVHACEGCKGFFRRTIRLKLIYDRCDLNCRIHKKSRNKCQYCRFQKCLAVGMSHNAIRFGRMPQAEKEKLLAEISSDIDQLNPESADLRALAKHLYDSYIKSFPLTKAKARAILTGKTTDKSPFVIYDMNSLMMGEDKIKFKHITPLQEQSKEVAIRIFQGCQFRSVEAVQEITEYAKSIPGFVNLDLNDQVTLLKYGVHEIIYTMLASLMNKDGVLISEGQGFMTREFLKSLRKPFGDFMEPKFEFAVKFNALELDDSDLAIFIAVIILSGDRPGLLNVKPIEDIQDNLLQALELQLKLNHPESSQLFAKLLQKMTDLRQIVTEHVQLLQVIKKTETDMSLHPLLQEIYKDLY
Outline: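 GeneBLAzer PPARg UAS-bla HEK293H cells, 5 h post-plating, exposed to compounds 17 h at 37C. LiveBLAzer B/G FRET substrate added for 1 h at room temperature; beta-lactamase reporter read by fluorescence intensity.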

[2] = qHTS assay for small molecule agonists of the antioxidant response element (ARE) signaling pathway (AID 743202; active = well fitted activation curve with a large enough effect in the signal ratio in the repeat runs, not every such curve was filed as active; inconclusive = weak or mixed curves, or effect the other way; inactive = no such curve, though single readings can be large or run the other way; the % refers to the signal ratio; also: potency is read from the fitted curve at half-maximal effect; as to activation: % is scaled to controls: 0 for no effect and ±100 for the full control effect); details: HepG2 ARE-bla reporter, beta-lactamase FRET, 16 h; activation: at 73.3 µM (top of the series) unless noted
Outline: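 ARE-bla HepG2 cells (beta-lactamase reporter under the antioxidant response element), plated 5 hours, then exposed to compounds 16 hours at 37 C. LiveBLAzer B/G FRET substrate added for 2 hours at room temperature; fluorescence intensity read.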

[3] = qHTS assay for small molecule activators of the heat shock response signaling pathway (AID 743210; active = well fitted activation curve with a large enough effect in the signal ratio in the repeat runs, with a control signal flat, not every such curve was filed as active; inconclusive = weak or mixed curves; the % refers to the signal ratio; also: potency is read from the fitted curve at half-maximal effect); details: HeLa HSE-bla reporter, beta-lactamase ratio, 5 h; activation: at 62.6 µM (top of the series)
Outline: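 HSE-bla HeLa cells (beta-lactamase reporter under heat shock response elements), plated overnight, then exposed to compounds 5 h at 37 C; LiveBLAzer B/G FRET substrate added, 2.5 h at room temperature, fluorescence intensity read.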

[4] = biological target: Peroxisome proliferator-activated receptor delta (Homo sapiens) (UniProt Q03181); assay: qHTS assay to identify small molecule antagonists of the peroxisome proliferator-activated receptor delta (PPARd) signaling pathway (AID 743215; active = well fitted inhibition curve with a large enough effect in the signal ratio in the repeat runs, not every such curve was filed as active; inconclusive = weak or mixed curves, or effect the other way; inactive = no such curve, though single readings can be large or run the other way; the % refers to the signal ratio;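 also: cells stimulated with agonist L165041 at 300 nM final during compound exposure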; also: potency is read from the fitted curve at half-maximal effect; as to ratio activity, negative = inhibition: % is scaled to controls: 0 for no effect and ±100 for the full control effect); details: HEK293H PPARd-UAS-bla, beta-lactamase FRET ratio, antagonist, 17 h; ratio activity, negative = inhibition: at 62 µM (top of the series) unless noted
Chain of UniProt Q03181 (Q03181 whole entry, looked up): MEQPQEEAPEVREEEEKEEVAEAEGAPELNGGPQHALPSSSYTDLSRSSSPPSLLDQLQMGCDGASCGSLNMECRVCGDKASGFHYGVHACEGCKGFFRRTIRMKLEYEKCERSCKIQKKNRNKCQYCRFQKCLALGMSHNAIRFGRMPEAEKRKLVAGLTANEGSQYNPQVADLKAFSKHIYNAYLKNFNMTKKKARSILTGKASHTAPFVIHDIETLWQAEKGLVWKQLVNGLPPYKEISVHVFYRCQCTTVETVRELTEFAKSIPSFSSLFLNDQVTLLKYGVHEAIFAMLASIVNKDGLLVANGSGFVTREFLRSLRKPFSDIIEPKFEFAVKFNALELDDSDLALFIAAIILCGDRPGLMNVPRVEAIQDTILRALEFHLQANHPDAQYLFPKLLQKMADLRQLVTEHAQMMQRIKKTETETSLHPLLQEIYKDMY
Outline: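 HEK293H UAS-bla, PPARd; agonist L165041 300 nM final with cpd in DMSO; 37 C 17 h; FRET substrate, RT 2 h; fluorescence intensity.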

[5] = qHTS assay to identify small molecule agonists of the peroxisome proliferator-activated receptor delta (PPARd) signaling pathway - cell viability counter screen (AID 743211; active = well fitted curve in the direction sought with a large enough effect in the repeat runs; inconclusive = weak or mixed curves; inactive = no such curve, though single readings can be large; an effect the other way counts as inactive or inconclusive; also: nearly all actives have a fitted effect of over 55% in size; also: potency is read from the fitted curve at half-maximal effect); details: PPARd-bla HEK293H viability, CellTiter-Glo luminescence, 17 h; activity change, negative = cytotoxicity: at 62.6 µM (top of the series)
Outline: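 PPARd-bla HEK293H cells (3000/well) were pre-incubated 5 h at 37 C, then exposed to compound for 17 h at 37 C. After 2 h with LiveBLAzer substrate, CellTiter-Glo was added to the same wells; luminescence read after 30 min at room temperature.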

[6] = biological target: Peroxisome proliferator-activated receptor delta (Homo sapiens) (UniProt Q03181); assay: qHTS assay to identify small molecule agonists of the peroxisome proliferator-activated receptor delta (PPARd) signaling pathway (AID 743212); details: HEK293H PPARd-UAS-bla, beta-lactamase FRET ratio, 17 h; activation: at 62.6 µM (top of the series) unless noted; also: potency is read from the fitted curve at half-maximal effect
Outline: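 GeneBLAzer UAS-bla HEK293H cells carrying a PPARδ construct were exposed to compounds at 37 °C. Beta-lactamase activity was read by FRET fluorescence after 2 h at room temperature with LiveBLAzer B/G substrate.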

[7] = biological target: Bile acid receptor (Homo sapiens) (UniProt Q96RI1); assay: qHTS assay to identify small molecule antagonists of the farnesoid-X-receptor (FXR) signaling pathway (AID 743217; active = well fitted inhibition curve with a large enough effect in the signal ratio in the repeat runs, not every such curve was filed as active; inconclusive = weak or mixed curves, or effect the other way; inactive = no such curve, though single readings can be large or run the other way; the % refers to the signal ratio; also: potency is read from the fitted curve at half-maximal effect); details: HEK293T FXR-UAS-bla, beta-lactamase ratio, CDCA-stimulated, 16 h; activity change, negative = inhibition: at 62.6 µM (top of the series) unless noted
Chain of UniProt Q96RI1 (Q96RI1 whole entry, looked up): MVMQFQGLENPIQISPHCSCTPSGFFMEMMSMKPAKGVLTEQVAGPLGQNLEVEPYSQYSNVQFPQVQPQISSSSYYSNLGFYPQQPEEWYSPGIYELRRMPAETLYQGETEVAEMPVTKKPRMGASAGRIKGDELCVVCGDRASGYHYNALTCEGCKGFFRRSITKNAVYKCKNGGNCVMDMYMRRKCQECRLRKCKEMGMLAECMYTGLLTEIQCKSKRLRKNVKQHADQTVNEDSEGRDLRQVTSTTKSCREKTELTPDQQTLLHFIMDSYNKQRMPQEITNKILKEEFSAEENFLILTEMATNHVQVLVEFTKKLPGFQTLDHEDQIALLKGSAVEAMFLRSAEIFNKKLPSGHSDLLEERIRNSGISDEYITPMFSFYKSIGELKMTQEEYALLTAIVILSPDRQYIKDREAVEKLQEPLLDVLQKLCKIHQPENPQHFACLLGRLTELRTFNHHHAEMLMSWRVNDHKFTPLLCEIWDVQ
Outline: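 GeneBLAzer FXR-UAS-bla HEK 293T, CDCA-stimulated (50 uM final). Compound treatment 16 h, 37 °C. Detection: beta-lactamase cleavage of B/G FRET substrate, fluorescence.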

[8] = qHTS assay to identify small molecule agonists of the farnesoid-X-receptor (FXR) signaling pathway - cell viability counter screen (AID 743218; active = well fitted curve in the direction sought with a large enough effect in the repeat runs; inconclusive = weak or mixed curves; inactive = no such curve, though single readings can be large; an effect the other way counts as inactive or inconclusive; also: potency is read from the fitted curve at half-maximal effect; nearly all actives have a fitted effect of over 45% in size); details: FXR-bla HEK293T viability, CellTiter-Glo luminescence, 16 h; viability change, negative = cytotoxic: at 62.6 µM (top of the series) unless noted
Outline: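 Parallel cytotoxicity test: compound-treated (16 h, 37 C) HEK 293T FXR-bla reporter cells were lysed with CellTiter-Glo and luminescence recorded.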

[9] = biological target: Bile acid receptor (Homo sapiens) (UniProt Q96RI1); assay: qHTS assay to identify small molecule agonists of the farnesoid-X-receptor (FXR) signaling pathway (AID 743220; active = well fitted activation curve with a large enough effect in the signal ratio in the repeat runs, not every such curve was filed as active; inconclusive = weak or mixed curves, or effect the other way; the % refers to the signal ratio; also: potency is read from the fitted curve at half-maximal effect); details: HEK293T FXR-UAS-bla, beta-lactamase FRET ratio, 16 h; activation: at 62.6 µM (top of the series) unless noted
Outline: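 Beta-lactamase reporter under UAS control in GeneBLAzer FXR HEK 293T cells (5000/well) measured with LiveBLAzer FRET substrate after 2 h at room temperature. Compound exposure lasted 16 h at 37C.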

[10] = qHTS assay to identify small molecule antagonists of the farnesoid-X-receptor (FXR) signaling pathway - cell viability counter screen (AID 743221; active = well fitted cell-killing curve with a large enough effect in the repeat runs, not every such curve was filed as active; inconclusive = weak or mixed curves, or effect the other way; inactive = no such curve, though single readings can be large or run the other way; also: nearly all actives have a fitted effect of over 50% in size; also: potency is read from the fitted curve at half-maximal effect); details: FXR-bla HEK293T viability, CellTiter-Glo luminescence, 16 h; activity change, negative = cytotoxicity: at 62.6 µM (top of the series)
Outline: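 GeneBLAzer FXR-UAS-bla HEK 293T cells, compound plus chenodeoxycholic acid (50 uM final), 16 h at 37 C. CellTiter-Glo added to the same wells after the beta-lactamase read; luminescence read after 30 min at room temperature as viability.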

[11] = biological target: Vitamin D3 receptor (Homo sapiens) (UniProt P11473); assay: qHTS assay to identify small molecule agonists of the vitamin D receptor (VDR) signaling pathway (AID 743222); details: HEK293T VDR-UAS-bla, beta-lactamase FRET ratio, 16 h; activation: at 63.5 µM (top of the series) unless noted; also: potency is read from the fitted curve at half-maximal effect
Chain of UniProt P11473 (P11473 whole entry, looked up): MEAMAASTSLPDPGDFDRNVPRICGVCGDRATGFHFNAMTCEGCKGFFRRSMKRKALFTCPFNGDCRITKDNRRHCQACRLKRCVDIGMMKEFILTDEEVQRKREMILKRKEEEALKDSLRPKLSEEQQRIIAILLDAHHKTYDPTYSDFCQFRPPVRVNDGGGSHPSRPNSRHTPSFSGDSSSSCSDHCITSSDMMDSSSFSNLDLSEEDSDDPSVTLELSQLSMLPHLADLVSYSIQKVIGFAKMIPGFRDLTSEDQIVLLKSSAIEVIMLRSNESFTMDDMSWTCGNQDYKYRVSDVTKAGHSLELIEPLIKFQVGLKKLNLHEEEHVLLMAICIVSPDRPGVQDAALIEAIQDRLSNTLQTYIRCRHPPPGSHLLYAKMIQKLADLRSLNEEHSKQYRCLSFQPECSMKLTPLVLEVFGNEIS
Outline: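 In VDR-bla cells, compound-induced beta-lactamase expression is quantified by FRET substrate fluorescence. Treatment lasts 16 h at 37C; substrate develops 2 h at room temperature.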

[12] = biological target: Vitamin D3 receptor (Homo sapiens) (UniProt P11473); assay: qHTS assay to identify small molecule antagonists of the vitamin D receptor (VDR) signaling pathway (AID 743223; active = well fitted inhibition curve with a large enough effect in the signal ratio in the repeat runs, not every such curve was filed as active; inconclusive = weak or mixed curves, or effect the other way; inactive = no such curve, though single readings can be large or run the other way; the % refers to the signal ratio; also: % is scaled to controls: 0 for no effect and ±100 for the full control effect); details: VDR-UAS-bla HEK293T, beta-lactamase FRET ratio, 16 h; activity change, negative = inhibition: at 61 µM (top of the series) unless noted
Outline: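 VDR-bla cells were treated with compound plus 3 nM final 1alpha,25-dihydroxyvitamin D3 for 16 h at 37C. Beta-lactamase reporter read by B/G FRET substrate fluorescence after 2 h at room temperature. qHTS format.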

[13] = qHTS assay for small molecule activators of the heat shock response signaling pathway - cell viability counter screen (AID 743209; active = well fitted curve in the direction sought with a large enough effect in the repeat runs; inconclusive = weak or mixed curves; inactive = no such curve, though single readings can be large; an effect the other way counts as inactive or inconclusive; also: nearly all actives have a fitted effect of over 50% in size; also: potency is read from the fitted curve at half-maximal effect); details: HSE-bla HeLa viability, CellTiter-Glo luminescence, 5 h; activity change, negative = cytotoxicity: at 62.6 µM (top of the series)
Outline: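 Readout: CellTiter-Glo luminescence, 30 min at room temperature. System: HSE-bla HeLa cells, 1500/well, plated overnight. Treatment: compounds in DMSO, 5 h at 37 C.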

[14] = qHTS assay for small molecule agonists of the antioxidant response element (ARE) signaling pathway - cell viability counter screen (AID 743203); details: ARE-bla HepG2 viability, CellTiter-Glo luminescence, 16 h; viability change, negative = cytotoxic: at 73.3 µM (top of the series); also: potency is read from the fitted curve at half-maximal effect; nearly all actives have a fitted effect of over 55% in size
Outline: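 Following 16 hrs of compound treatment at 37C, HepG2 cells with an ARE-controlled beta-lactamase gene were lysed with CellTiter-Glo. Luminescence was read after 30 min at room temperature.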

[15] = qHTS assay to identify small molecule antagonists of the peroxisome proliferator-activated receptor delta (PPARd) signaling pathway - cell viability counter screen (AID 743213; active = well fitted curve in the direction sought with a large enough effect in the repeat runs; inconclusive = weak or mixed curves; inactive = no such curve, though single readings can be large; an effect the other way counts as inactive or inconclusive; also: potency is read from the fitted curve at half-maximal effect; nearly all actives have a fitted effect of over 50% in size); details: PPARd-bla HEK293H viability, CellTiter-Glo luminescence, 17 h; viability change, negative = cytotoxic: at 62 µM (top of the series) unless noted
Outline: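 Same-well viability: cells pre-incubated 5 h, dosed with compound plus 300 nM L165041, kept 17 h at 37 C, FRET substrate 2 h RT, then CellTiter-Glo 30 min RT and luminescence.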
Tags tell the direction and shape of the fitted curve or compound fluorescence and quenching.

Cc1ccc(C=O)s1
ratio activity, negative = inhibition [1]: inconclusive: -2.66% | Potency [2]: inactive | Potency [3]: inconclusive: 54.9 µM [activator] | Potency [4]: inactive

CCCCCOc1ccccc1/C(=C\SC)n1ccnc1
Potency [1]: active: 29.8 µM | Potency [2]: inconclusive: 29.8 µM [falling, partial curve, poor fit] | Potency [3]: inconclusive: 21.1 µM [rising, partial curve] | Potency [5]: inconclusive: 29.8 µM [cytotoxic, single point] | Potency [6]: inconclusive: 11.9 µM [rising, partial curve, poor fit] | ratio activity, negative = inhibition [4]: inconclusive: -75.3% | Potency [7]: inconclusive: 23.7 µM [rising, partial curve, poor fit] | Potency [8]: inconclusive: 23.7 µM [cytotoxic, partial curve, poor fit] | Potency [9]: inconclusive: 13.3 µM [activator, single point] | Potency [10]: inconclusive: 33.5 µM [falling, single point] | activation [11]: inconclusive: -34.1% | activity change, negative = inhibition [12]: inconclusive: -19.5%

Cc1occc1S
Potency [1]: inactive | Potency [2]: inconclusive: 34.4 µM [rising, partial curve, poor fit] | Potency [3]: inconclusive: 57.1 µM [activator]

O=C1Nc2cc(Cl)ccc2Oc2ccccc21
Potency [1]: inactive | Potency [2]: inconclusive: 6.68 µM [rising, full curve] | Potency [13]: inactive

CCCCCCCC/C=C\CCCCCCCC(=O)NCc1ccc(O)c(OC)c1
ratio activity, negative = inhibition [1]: inconclusive: -36.2% [inhibitor] | Potency [2]: inconclusive: 33.5 µM | Potency [14]: inconclusive: 33.5 µM [cytotoxic, single point] | Potency [13]: inconclusive: 33.5 µM [cytotoxic, single point] | Potency [3]: inconclusive: 28.2 µM | Potency [6]: inactive | Potency [15]: active: 18.8 µM | Potency [7]: active: 29.8 µM | Potency [8]: active: 29.8 µM | Potency [10]: inconclusive: 33.5 µM

CC(C)(C)c1ccc(C(=O)CCCCl)cc1
ratio activity, negative = inhibition [1]: inconclusive: 21.8% | Potency [2]: inactive | Potency [5]: inconclusive: 1.68 µM [rising, full curve, poor fit] | Potency [6]: inactive | Potency [12]: inactive

CCCCOc1ccc(C(=O)CCN2CCCCC2)cc1
Potency [1]: inactive | Potency [2]: inconclusive: 15 µM [falling, partial curve] | Potency [14]: active: 26.6 µM | Potency [3]: inconclusive: 9.44 µM [rising, partial curve, poor fit] | Potency [6]: inactive | Potency [10]: inconclusive: 29.8 µM [falling, partial curve, poor fit] | activation [11]: inconclusive: -21% | activity change, negative = inhibition [12]: inconclusive: -32.1%

Cc1cc(C(C)(C)C)c(O)c(C)c1CC1=NCCN1
Potency [1]: inactive | activation [2]: inconclusive: -13.7% | Potency [5]: inconclusive: 33.5 µM [cytotoxic, partial curve, poor fit] | ratio activity, negative = inhibition [4]: inconclusive: -2.43% [fluorescent]

CC(=O)Oc1ccc(C(c2ccc(OC(C)=O)cc2)c2ccccn2)cc1
ratio activity, negative = inhibition [1]: inconclusive: -41.9% | Potency [2]: inconclusive: 34.2 µM [rising, partial curve, poor fit] | Potency [5]: inconclusive: 33.5 µM [cytotoxic, partial curve, poor fit] | Potency [6]: inconclusive: 12.2 µM [rising, full curve, poor fit] | Potency [8]: inconclusive: 3.87 µM [cytotoxic, full curve] | Potency [10]: inconclusive: 8.66 µM [falling, partial curve, poor fit] | activity change, negative = cytotoxicity [10]: inconclusive: -39% | activity change, negative = inhibition [12]: inconclusive: 23%

O=C(CCOCCOCCOCCOCCC(=O)Nc1c(I)cc(I)c(C(=O)O)c1I)Nc1c(I)cc(I)c(C(=O)O)c1I
ratio activity, negative = inhibition [1]: inconclusive: 9.53% | Potency [2]: inactive | Potency [5]: inactive

O[C@@H](COc1cccc2ncccc12)CN1CCN(C2c3ccccc3[C@@H]3[C@H](c4ccccc42)C3(F)F)CC1 (stereo partly specified)
Potency [1]: inconclusive: 7.5 µM [inhibitor, full curve] | Potency [2]: inconclusive: 33.5 µM [falling, single point] | Potency [3]: inconclusive: 31 µM | Potency [5]: active: 9.44 µM | Potency [15]: active: 23.7 µM | Potency [4]: inconclusive: 33.5 µM [inhibitor, single point] | Potency [7]: inconclusive: 13.3 µM [rising, full curve, poor fit] | Potency [8]: active: 15 µM | Potency [9]: inconclusive: 33.5 µM [falling, single point] | Potency [10]: active: 21.1 µM | Potency [11]: inconclusive: 33.5 µM [rising, partial curve, poor fit] | activity change, negative = inhibition [12]: inconclusive: -33.6%

CC(C)Nc1ccc(NC(C)C)c2c1C(=O)c1ccccc1C2=O
ratio activity, negative = inhibition [1]: inconclusive: 16.4% | activation [2]: inconclusive: 33.3% | Potency [5]: inactive | Potency [8]: inconclusive: 0.0072 µM [rising, partial curve, poor fit] | Potency [10]: inconclusive: 28.6 µM [falling, partial curve, poor fit] | Potency [12]: inactive

CNC(=O)c1ccccc1
ratio activity, negative = inhibition [1]: inconclusive: -21% | Potency [2]: inconclusive: 27.3 µM [rising, single point] | Potency [13]: inactive | Potency [6]: inactive | Potency [4]: inactive | Potency [9]: inactive

CC(=O)c1c(C)cc(C(C)(C)C)cc1C
Potency [1]: inactive | activation [2]: inconclusive: 2.01% | Potency [13]: inactive

CCCCOC(=O)/C=C\C(=O)OCCCC
ratio activity, negative = inhibition [1]: inconclusive: -24.7% [at 81.1 µM] | activation [2]: inconclusive: 35.3% [at 94.8 µM] | Potency [3]: inconclusive: 54.7 µM [activator] | Potency [7]: inconclusive: 12.7 µM [inhibitor, partial curve, poor fit]
